Test results taken from PubChem BioAssay AID488969 (Vanderbilt High Throughput Screening Facility, 2010).
In all, about 110,000 compounds were measured (“z-score”: median about -0.1, highest 2% from about 2 on). The list shows a part of the results. The source made the active and inactive calls.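 Rule for the calls: active = z-score in the third read window above 3 or below -3; inactive = the rest.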

Target: Metabotropic glutamate receptor 8 (Rattus norvegicus) (UniProt P70579)
Assay: mGluR8 Gi/Go-coupled signaling modulation – cell-based, rat, thallium flux, HTS, primary screen (AID 488969)
Settings: HEK293 rat mGluR8, GIRK (G protein-gated inwardly rectifying potassium channel) thallium flux, FluoZin2; at 10 µM; stronger effect = higher value; submaximal glutamate (EC20) added with thallium

UniProt P70579, sequence (P70579 whole entry, looked up): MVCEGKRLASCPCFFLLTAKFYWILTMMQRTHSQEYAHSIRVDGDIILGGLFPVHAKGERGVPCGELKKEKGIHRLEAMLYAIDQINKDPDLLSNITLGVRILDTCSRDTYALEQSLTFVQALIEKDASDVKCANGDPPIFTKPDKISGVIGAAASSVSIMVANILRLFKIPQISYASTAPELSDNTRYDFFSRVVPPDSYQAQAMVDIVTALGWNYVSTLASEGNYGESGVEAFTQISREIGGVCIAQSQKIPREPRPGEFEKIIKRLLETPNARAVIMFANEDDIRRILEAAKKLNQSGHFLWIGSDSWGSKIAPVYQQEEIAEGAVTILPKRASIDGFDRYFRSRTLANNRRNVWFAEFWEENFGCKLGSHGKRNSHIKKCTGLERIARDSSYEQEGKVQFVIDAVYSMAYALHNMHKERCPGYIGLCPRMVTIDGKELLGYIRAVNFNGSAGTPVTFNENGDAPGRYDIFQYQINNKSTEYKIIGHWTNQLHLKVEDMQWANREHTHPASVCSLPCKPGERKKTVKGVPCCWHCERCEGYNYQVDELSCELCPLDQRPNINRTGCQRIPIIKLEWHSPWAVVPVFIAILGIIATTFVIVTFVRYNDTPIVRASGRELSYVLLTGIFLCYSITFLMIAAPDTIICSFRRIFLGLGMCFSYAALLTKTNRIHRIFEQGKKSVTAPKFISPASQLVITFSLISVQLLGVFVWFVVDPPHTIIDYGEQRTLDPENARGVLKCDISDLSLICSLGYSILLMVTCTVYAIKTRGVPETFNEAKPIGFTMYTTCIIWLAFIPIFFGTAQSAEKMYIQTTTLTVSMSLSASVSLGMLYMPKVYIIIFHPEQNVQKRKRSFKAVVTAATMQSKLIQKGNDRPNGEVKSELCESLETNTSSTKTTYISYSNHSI

Structure (SMILES) | z-score
Cc1cc(C)nc(NCCCc2ccccc2)n1 | 0.39
C=CCc1ccc(OCCCCN2CCC(C)CC2)c(OC)c1 | 0.37
COCCNC(=O)C1c2cc(OC)c(OC)cc2C(=O)N(C)C1c1cccnc1 (stereo unspecified) | 0.589
CCOC(=O)/C(N=Nc1sc(C(=O)OCC)c(C)c1C(=O)OCC)=C(\C)O | -0.334
CC1CCN(CCNC(=O)C2CCCN(S(=O)(=O)c3cccc4nonc34)C2)CC1 (stereo unspecified) | 0.132
O=[N+]([O-])c1ccc(N/N=C\c2cccn2-c2ccccc2)nc1 | -0.00582
O=C(CCCc1ccccc1)Nc1cccnc1 | 0.0742
COc1ccc(OC)c(NC(=O)/C=C/c2ccccc2[N+](=O)[O-])c1 | -0.104
CCNc1nc(NC(C)C)nc(N(C#N)CCOc2ccc(Cl)cc2Cl)n1 | -0.62
COc1ccc(NS(=O)(=O)c2cccc(NC(=O)CCS(=O)(=O)c3ccccc3)c2)cc1 | -0.266
CCOc1ccc(OCc2ccc(C(=O)O)o2)cc1 | -1.56
CCC(C)N=CC1=C(O)C(C(=O)OC)C(C)(C)CC1=O (stereo unspecified) | -0.129
CC1(C)CC(=O)C(C=NC(CCC(N)=O)C(=O)O)=C(O)C1 (stereo unspecified) | 1.69
CCOc1ccc(Cl)cc1S(=O)(=O)n1cnc2cc(C)c(C)cc21 | 0.0185
COc1ccc(S(=O)(=O)N2CCN(c3c(C)cccc3C)CC2)cc1OC | -0.315
CCCCOP(=O)(c1ccc(N(C)C)cc1)C(O)c1ccncc1 (stereo unspecified) | -0.0443
COc1cccc(OCC(=O)Nc2ccccc2C(N)=O)c1 | 0.418
O=C(Cn1c(-c2ccccn2)nc2ccccc21)NCCN1CCOCC1 | 0.462
COc1ccccc1OCC(=O)Nc1cccc(-c2nc3ccccc3o2)c1 | -0.173
CCOC(=O)C1=NN(C(=O)Nc2ccc(OC)cc2)C2C(=O)N(c3cccc(C(F)(F)F)c3)C(=O)C12 (stereo unspecified) | -0.158
O=c1ccnc(NCCc2ccccc2)[nH]1 | 0.381
C/C(=N\NC(=S)Nc1cccc(C)c1)c1ccccc1 | active: 5.36
CCOc1ccccc1CNC(=O)C1CCC(=O)N1C(C)C (stereo unspecified) | 0.137

Structure (SMILES) | z-score
CCNc1cc(N2CCN(S(=O)(=O)c3ccc4c(c3)CCCC4)CC2)ccc1[N+](=O)[O-] | 0.0362
Cc1[nH]n(-c2cccc3ccccc23)c(=O)c1C=Nc1ccc2[nH]c(=O)[nH]c2c1 | -0.151
O=C(N/N=C/c1ccccc1O)C1(O)c2ccccc2-c2ccccc21 | -0.141
CCCNC(=O)CN(c1ccc(F)cc1)S(=O)(=O)c1ccc2c(c1)OCCO2 | -0.0348
Cc1sc(NC(=O)CN2CCOCC2)c(C(=O)c2ccccc2)c1C | -0.16
CCC(=O)N(C)CCc1cc2c(c(OC)c1/C=N/NC(=O)c1ccc(Br)cc1)OCO2 | -0.518
CCCCNCCOCCOc1ccc(C)cc1Br | -0.351
CC(=O)Nc1ccc(NC(=O)COC(=O)c2ccc(C)s2)cc1 | -0.0429
COc1ccc(C2CC(c3c(-c4ccccc4)c4cc(Cl)ccc4[nH]c3=O)=NN2S(C)(=O)=O)cc1OC (stereo unspecified) | -0.144
CC(NC(=O)CN1C(=O)NC(Cc2ccccc2)(Cc2ccccc2)C1=O)C12CC3CC(CC(C3)C1)C2 (stereo unspecified) | 0.381
COC(=O)C1=C(C)NC(=S)NC1c1ccc(-c2cccc(Cl)c2)o1 (stereo unspecified) | -0.157
CC(C)OC(=O)C(CC(=O)O)N1CCOCC1 (stereo unspecified) | -0.0224
CC1(C)CC(=O)C2=C(C1)N(c1ccccc1C#N)C(N)=C(C#N)C2c1cccs1 (stereo unspecified) | -0.944
CCNC(=O)Cc1ccc(Br)cc1 | -0.118
Cc1ccc(Cn2ccc(NC(=O)c3cc4nc5c(c(C(F)(F)F)n4n3)CCc3ccccc3-5)n2)cc1 | -0.0356
CCO/N=C(/C)c1c(O)cc(C(C)(C)C)n(-c2ccccc2)c1=O | -0.388
CC(C)Oc1ccc(Oc2ccc(C(F)(F)F)cn2)cc1 | -0.146
CCCCSCc1[nH]c(=O)[nH]c1C(=O)CCCCC(=O)OCC | 0.784
CCCCSc1nc(C)nc2c1c(=O)n(C)c(=O)n2C | -0.303
C/C(=N\O)C(=O)NCCCNCCCN(C)C | -0.317
CC1(C)CC2CC(C)(CN2c2ncnc3ccccc23)C1 (stereo unspecified) | -0.947
CC(/C=N/NC(=O)CCn1nnc2ccccc21)=C\c1ccccc1 | -0.813
O=c1nc(NC2CCCC2)ccn1Cc1cccc(Br)c1 | -0.419

Structure (SMILES) | z-score
CCCC(O)(CCN(C)C)c1ccc(OC)cc1 (stereo unspecified) | -0.12
O=C1CC(N2CCN(c3ccc(S(=O)(=O)N4CCCC4)cc3)CC2)C(=O)N1c1ccc(F)cc1 (stereo unspecified) | -0.454
Cc1ccccc1NC(=O)C(C)c1cccc(C(=O)c2ccccc2)c1 (stereo unspecified) | -1.23
COc1cccc(/C=N/NC(=O)c2cc(-c3cccn3C)n[nH]2)c1O | 0.54
COc1ccc(OC)c(Nc2nc3nonc3nc2N2CCCC(C)C2)c1 (stereo unspecified) | -0.105
CCOC(=O)CCC(NC(=O)c1ccc(NCN2C(=O)CCC2=O)cc1)C(=O)OCC (stereo unspecified) | -0.434
CCOc1ccccc1-c1nnc(SCC(=O)Nc2ccccc2)o1 | 0.401
Cn1cccc1C(=O)C(=O)Nc1cccc(Cl)c1Cl | -0.0708
CC(=O)C1C(c2ccc(F)c(F)c2)NC(=O)NC1(O)C(F)(F)F (stereo unspecified) | 0.336
CCN(CC)c1nc(Nc2ccccc2)nc(Oc2ccc(=O)[nH]n2)n1 | -1.5
CC(C)Oc1ccc(CC2CCC(=O)N(C)C2=O)cc1 (stereo unspecified) | -0.385
Cc1nc(Nc2ccc(Cl)cc2Cl)sc1C(=O)Nc1ccccc1 | -0.181
COc1cc2c3c(c1OC)C1(C=CC(=NNC(N)=O)C=C1)CC3N(C(C)=O)CC2 (stereo unspecified) | -0.321
COc1ccc(CN2CCN(S(=O)(=O)c3ccccc3)CC2)cc1Br | -0.44
COC(=O)c1sccc1NC(=O)c1ccc(C)o1 | -0.261
CCOC(=O)N1CCC(NC(=O)C(NC(=O)C2CCC(C)CC2)C(C)CC)CC1 (stereo unspecified) | 0.0225
O=C(NCCO)/C(=C\c1ccc(Br)cc1)NC(=O)c1cccs1 | 0.19
CCOC(=O)c1cc2c(C)n(-c3ccc(OCC)cc3)c(C)c2cc(C(=O)OCC)c1=O | -0.0746
COc1ccc(C2(CNC(=O)/C=C\c3ccco3)CCCC2)cc1OC | -0.163
Cn1c(=O)[nH]c(=O)c2c1nc(N1CCOCC1)n2CCSc1nc2ccccc2[nH]1 | -0.0622
CS(=O)(=O)N(CC(=O)NCC1CCCO1)c1ccc(F)c(Cl)c1 (stereo unspecified) | 0.0103
Cc1cc(C(=O)Nc2ccccc2N2CCOCC2)c2ccccc2n1 | -0.137
N#CC1(Cc2ccc([N+](=O)[O-])cc2)c2ccccc2C=CN1C(=O)c1ccccc1 (stereo unspecified) | 2.08

Structure (SMILES) | z-score
Cc1cccc(NC(=O)c2ccccc2OCC(=O)c2ccc(F)cc2)c1 | 0.0508
O=C(CSc1nnc(-c2cccs2)n1Cc1ccccc1)N1CCc2ccccc2C1 | -1.37
COC(=O)c1ccc(Oc2c(Cl)cccc2[N+](=O)[O-])cc1 | -0.0259
CC(Oc1ccc(F)cc1)C(=O)/C=C\N(C)C (stereo unspecified) | 0.000912
O=c1c2ccccc2nc2sc3ccccc3n12 | 0.369
COC(CNC(=O)c1cc(C(=O)c2c(-c3c(Cl)cccc3Cl)noc2C)c[nH]1)OC | 0.0888
O=C(Nc1ccc2nc(-c3cccnc3)[nH]c2c1)C1CCCCC1 | -1.46
COc1ccc(NC(C)c2cc(Cl)ccc2O)cc1 (stereo unspecified) | -0.607
COC(=O)CSC1=C(C#N)C(c2ccc(F)cc2)CC(=O)N1 (stereo unspecified) | -0.049
COc1ccccc1N1CCN(C(=O)c2ccc(CN3CCc4ccccc4C3)cc2)CC1 | -0.0526
Cc1ccccc1NC(=O)CNc1ccc(Cl)c(C(F)(F)F)c1 | -0.365
CNC(=O)C1C(=S)NC(N)=C(C#N)C1c1ccccc1 (stereo unspecified) | 0.223
COc1cc(S(=O)(=O)N2CCOCC2)c(OC)c(S(=O)(=O)N2CCOCC2)c1 | 0.0665
COc1ccc2nc(-c3cccc(N)c3)[nH]c2c1 | -0.108
COc1ccc(N2CCN(CC(=O)N3CCC(C)CC3)CC2)cc1 | 0.116
CC(=O)c1coc2ccc(OCC(=O)O)cc12 | -0.987
O=C(Cc1cccs1)Nc1nnc(COc2ccccc2)s1 | 0.29
CCOc1ccc(S(=O)(=O)NCc2csc(C)n2)cc1 | 0.494
CCCN1C(=O)/C(=C/c2ccncc2)SC1=S | 0.165
CCC(=O)Nc1cc(C(=O)OCC(=O)c2ccccc2Cl)ccc1C | -0.288
COc1ccc(S(=O)(=O)N2CCC(C(=O)NCC(c3cccs3)N(C)C)CC2)cc1 (stereo unspecified) | 0.122
C/C(=C\c1ccccc1)C(=O)n1nnc2ccccc21 | -0.278
OC(Cn1cncn1)c1ccc(Cl)cc1Cl (stereo unspecified) | -0.324

Structure (SMILES) | z-score
CCOc1ccccc1NC(=O)CCc1ccc(C)o1 | -0.332
N=C1/C(=C\c2ccc(-c3cc(Cl)cc(Cl)c3)o2)C(=O)N=C2SC=C(c3ccccc3)N12 | 0.85
CCCc1c(C)[nH]c2ccccc2c1=O | -0.356
CN1CCN(NC(=O)COc2cccc(C(F)(F)F)c2)CC1 | -0.103
COc1ccc(-n2nc3c(c2NC(=O)c2cc(Br)ccc2Cl)CS(=O)C3)cc1 (stereo unspecified) | -0.251
Cn1ncc2c(NCc3ccccc3)ncnc21 | -0.129
CCCC(=O)Nc1nc(C)c(-c2csc(Nc3ccc(Cl)cc3)n2)s1 | 0.242
Cc1nc2ccccn2c1C(=O)N/N=C/c1ccccc1[N+](=O)[O-] | 0.331
CC1C/C(=N\NC(=S)NCc2ccccc2)CC(C)(C)C1 (stereo unspecified) | 1.66
COc1ccc(C)cc1-n1nnnc1SCC1CCCCO1 (stereo unspecified) | -0.0123
CCOC(=O)C(C)Sc1nnc(Cc2cc(=O)[nH]c(=O)[nH]2)n1-c1ccc(OCC)cc1 (stereo unspecified) | 0.465
O=C(NCCCn1ccnc1)Nc1ccc(Cl)c(Cl)c1 | active: 3.92
CC(C)(C)NC(=O)C(c1ccco1)N(C(=O)Cn1nnc(-c2ccc(F)cc2)n1)c1ccccc1 (stereo unspecified) | 0.0125
CCN(CC)CCOC(=O)c1c(C)oc2ccc(O)cc12 | 1.07
COc1ccccc1OCC(=O)NCCC1=CCCCC1 | -0.178
COc1ccc(CNC(=O)Nc2cccs2)cc1OC | 1.39
O=C(Nc1ccc(Br)cc1)C1CCN(C(=O)c2ccc(F)cc2)CC1 | -0.239
C=CCNc1nc(-c2cccc(OC)c2O)nc2ccccc12 | -0.327
CSc1nc(NCc2ccco2)c2sc3nc(C(C)C)c4c(c3c2n1)CC(C)(C)OC4 | -0.193
